Results reported in the supplement of paper PMC10369915.
This is one part of the list. Rule as the data show it: active = 3.2 or more and inactive = the rest. Most of these values are background signal.

Legend:
Experiment in all cases: enrichment score (SH2-bound / input frequency) (ratio); bacterial display of known human phosphotyrosine sites (pTyr-Var adds point mutants) read by sequencing; higher = stronger binding; tyrosines were phosphorylated by kinases first
Details in all cases: peptide library: pTyr-Var
SHP2 C-SH2 domain E139D = molecular target: SHP2 C-SH2 domain E139D
[1] = molecular target: SHP2 C-SH2 domain wild-type
SHP2 N-SH2 domain L43F = molecular target: SHP2 N-SH2 domain L43F
SHP2 N-SH2 domain T42A = molecular target: SHP2 N-SH2 domain T42A
SHP2 N-SH2 domain T52S = molecular target: SHP2 N-SH2 domain T52S
[2] = molecular target: SHP2 N-SH2 domain wild-type
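Also: displayed peptides selected on beads carrying the immobilized SH2 domain, with library peptides lacking any tyrosine serving as negative controls.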

Binder	enrichment score (SHP2 C-SH2 domain E139D)	enrichment score [1]	enrichment score (SHP2 N-SH2 domain L43F)	enrichment score (SHP2 N-SH2 domain T42A)	enrichment score (SHP2 N-SH2 domain T52S)	enrichment score [2]
LRFEVYGGENE [STOX1_Y610_YF]	inactive: 1.25	inactive: 1.48	inactive: 1.25	inactive: 1.26	inactive: 1.25	inactive: 1.41
HIILLYIFLKN [STXBP1_Y411_R406H]	inactive: 1.33	inactive: 0.858	inactive: 1.52	inactive: 0.813	inactive: 1.16	inactive: 0.858
SDVCMYRKNTY [SYNE2_Y570_I574T]	inactive: 0.505	inactive: 0.722	inactive: 0.612	inactive: 0.462	inactive: 0.469	inactive: 0.515
SYCYRYCCAAR [SUMF1_Y344_R345C]	inactive: 0.764	inactive: 0.417	inactive: 0.402	inactive: 0.566	inactive: 0.486	inactive: 0.419
PLKYLYPNIDR [STAT1_Y668_K673R]	inactive: 1.14	inactive: 1.61	active: 3.38	active: 3.83	active: 3.94	inactive: 2.15
PPQFSYGLQTQ [SRA1_Y35]	inactive: 0.962	inactive: 0.677	inactive: 0.712	inactive: 0.667	inactive: 0.76	inactive: 0.644
LFCVHYFHRTF [SRD5A2_Y91]	inactive: 2.67	inactive: 2.84	inactive: 3.04	inactive: 2.39	inactive: 2.63	inactive: 2.76
SYCYRYRCAAW [SUMF1_Y344_R349W]	active: 4.2	active: 3.38	active: 3.97	active: 3.35	active: 3.76	active: 3.37
SFCFRYRCAAQ [SUMF1_Y344_R349Q_YF]	active: 3.73	inactive: 2.98	active: 3.3	inactive: 2.79	active: 3.24	inactive: 2.65
YRKNIYNVKST [SYNE2_Y575]	inactive: 0.637	inactive: 0.347	inactive: 0.57	inactive: 0.572	inactive: 0.731	inactive: 0.489
EDDIIYTQDFM [STK11_Y362_T367M]	inactive: 0.456	inactive: 0.602	inactive: 0.51	inactive: 0.489	inactive: 0.461	inactive: 0.627
ESDFPYSSSFE [SRPK2_Y427_T426P_YF]	inactive: 0.444	inactive: 0.442	inactive: 0.451	inactive: 0.514	inactive: 0.467	inactive: 0.519
LWEGSYGKVKE [STK11_Y60_G56W]	inactive: 0.613	inactive: 0.56	inactive: 0.696	inactive: 0.689	inactive: 0.824	inactive: 0.892
VGSEDYGRDLT [SPTAN1_Y1792]	inactive: 0.892	inactive: 0.874	inactive: 1.11	inactive: 0.726	inactive: 0.874	inactive: 0.876
TDTAAYEERLR [SPTB_Y474_V478L]	inactive: 0.446	inactive: 0.433	inactive: 0.507	inactive: 0.489	inactive: 0.474	inactive: 0.571
SDVCMYRKNIY [SYNE2_Y570]	inactive: 0.774	inactive: 0.673	inactive: 0.674	inactive: 0.475	inactive: 0.613	inactive: 1.01
PKGTGYIKTES [STAT1_Y701_L706S]	inactive: 0.683	inactive: 0.819	inactive: 0.517	inactive: 0.649	inactive: 0.786	inactive: 0.916
MGSFNYLGFAR [SPTLC2_Y178_YF]	inactive: 1.21	inactive: 1.12	inactive: 1.04	inactive: 1.1	inactive: 1.13	inactive: 1.09
LLKMMYLMLDN [STAT1_Y203_K201M]	active: 5.13	active: 4.64	active: 4.8	active: 3.77	active: 3.68	active: 4.31

Binder	enrichment score (SHP2 C-SH2 domain E139D)	enrichment score [1]	enrichment score (SHP2 N-SH2 domain L43F)	enrichment score (SHP2 N-SH2 domain T42A)	enrichment score (SHP2 N-SH2 domain T52S)	enrichment score [2]
LEKISYVYMKR [SSX7_Y48]	inactive: 1.31	inactive: 1.64	inactive: 0.814	inactive: 1.66	inactive: 1.11	inactive: 0.87
FSAGTYPRLEE [SYCN_Y108]	inactive: 0.842	inactive: 0.762	inactive: 0.68	inactive: 0.735	inactive: 0.775	inactive: 0.894
MKKMHYVDPDR [ST3GAL5_Y99_H104R]	inactive: 0.975	inactive: 0.891	inactive: 0.844	inactive: 0.741	inactive: 0.786	inactive: 0.965
SASSSYSRSRS [SRRM4_Y549_R547S]	inactive: 0.169	inactive: 0.309	inactive: 0.31	inactive: 0.233	inactive: 0.344	inactive: 0.284
MGSYNYLGFPR [SPTLC2_Y178_A182P]	inactive: 0.922	inactive: 1.55	inactive: 1.04	inactive: 2.41	inactive: 0.939	inactive: 0.937
FRKNTYNVKST [SYNE2_Y575_I574T_YF]	inactive: 0.45	inactive: 0.404	inactive: 0.414	inactive: 0.382	inactive: 0.503	inactive: 0.515
AFLEDYFTSTK [SRC_Y522_E527K]	inactive: 1.4	inactive: 1.14	inactive: 1.21	inactive: 1.2	inactive: 1.8	inactive: 1.18
MGSFNYLGFPR [SPTLC2_Y178_A182P_YF]	inactive: 1.31	inactive: 1.01	inactive: 0.925	inactive: 0.932	inactive: 0.944	inactive: 0.926
PPEFSYGLQTQ [SRA1_Y35_Q32E]	inactive: 0.864	inactive: 0.757	inactive: 1.1	inactive: 0.754	inactive: 0.605	inactive: 0.912
SDVCMYRKNIF [SYNE2_Y570_YF]	inactive: 0.884	inactive: 1.04	inactive: 0.838	inactive: 0.486	inactive: 0.615	inactive: 1.18
DLQDENDFKCK [STAT1_Y170_Y170N]	inactive: 0.499	inactive: 0.68	inactive: 0.489	inactive: 0.448	inactive: 0.557	inactive: 0.491
TLERHYEELQA [SPTBN2_Y834]	inactive: 0.916	inactive: 0.821	inactive: 0.749	inactive: 1.02	inactive: 0.69	inactive: 1.11
LLKKMYLMLDN [STAT1_Y203]	inactive: 3.18	inactive: 2.62	inactive: 2.98	inactive: 3.01	inactive: 3.17	inactive: 2.8
CQAHGYSCQLI [STK11_Y156_F157S]	inactive: 1.3	inactive: 1.06	inactive: 1.21	inactive: 0.88	inactive: 0.962	inactive: 0.843
PVRIAYGRPRG [SUGP2_Y985_D986G]	inactive: 0.34	inactive: 0.283	inactive: 0.186	inactive: 0.164	inactive: 0.325	inactive: 0.284
STEVIYLPRRK [STK11_Y36_Q37L]	inactive: 0.215	inactive: 0.297	inactive: 0.275	inactive: 0.177	inactive: 0.227	inactive: 0.208
ESDYPYSSSYE [SRPK2_Y427_T426P]	inactive: 0.446	inactive: 0.439	inactive: 0.499	inactive: 0.396	inactive: 0.442	inactive: 0.389
CQAHGYFCQPI [STK11_Y156_L160P]	inactive: 1.5	inactive: 1.34	inactive: 1.47	inactive: 1.1	inactive: 1.43	inactive: 1.48
